{
  "source": "PubChem BioAssay (NCI)",
  "note": "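Five concentrations, 48 hours, 96-well plates. GI50 = concentration required for 50% inhibition of growth. Definition used: TGI = concentration required for complete inhibition of growth.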",
  "data": [
    {"test_system": "NCI-H322M lung", "test": "DTP human tumour cell line panel, 48 h", "units": {"TGI": "µM", "GI50": "µM"}, "values": [
      {"compound": "CCOC(=O)NC(=O)c1cn(CCCOC(=O)NCCCCCCNC(=O)OCCCn2c(=O)c(C(=O)NC(=O)OCC)cn(C)c2=O)c(=O)n(C)c1=O", "TGI": "> 100"},
      {"compound": "NC1C2(CCCCCC2)NC(=O)C12CCCCCC2", "note": "(stereo not given)", "TGI": "> 100"},
      {"compound": "Cc1ccc(N=NC(C(=O)c2ccccc2)C(=O)c2ccccc2)cc1", "TGI": 62.5},
      {"compound": "C[N+](C)(N)CCC[N+](C)(C)N", "TGI": "> 100"},
      {"compound": "CC(=O)NCc1nc(C#N)c(N)o1", "TGI": "> 100"},
      {"compound": "CCCN=C(NC(=O)c1ccc(Cl)cc1)SC", "TGI": "> 100"},
      {"compound": "N#CC1=C(N2CCCC2)NC(=O)CC1=O", "TGI": "> 100"},
      {"compound": "NS(=O)(=O)c1nnc(NC(=O)c2ccccc2)s1", "TGI": "> 100"},
      {"compound": "NC(N)=NC(N)=Nc1cc2ccccc2c2ccccc12", "GI50": 11.4, "TGI": 23.9},
      {"compound": "Cc1cc(=O)[nH]c(NNC(C#N)c2ccc(O)cc2)n1", "note": "(stereo not given)", "TGI": "> 100"},
      {"compound": "O=C(CNc1ccc(Cl)cc1)Nn1c(-c2ccccc2)nc2ccccc2c1=O", "TGI": 28.7},
      {"compound": "COc1cc(Cn2c(-c3ccccc3)cc3c2-c2oncc2CC3)cc(OC)c1OC", "GI50": 46.5, "TGI": "> 100"},
      {"compound": "CCCCNC(=O)NS(=O)(=O)c1ccc(N2N=C(c3ccc(C)cc3C)CC2c2ccc(N(C)C)cc2)cc1", "note": "(stereo not given)", "GI50": 5.19, "TGI": "> 100"},
      {"compound": "CCC1c2[nH]c3ccccc3c2C[C@H]2C(=O)NC(CCC(=O)OC(C)(C)C)C(=O)N12", "note": "(stereo not given in full)", "TGI": "> 100"},
      {"compound": "COC(=O)C(=O)C(C(=O)C(=O)Nc1ccc(C)cc1C)c1nc2ccccc2[nH]c1=O", "note": "(stereo not given)", "TGI": "> 100"},
      {"compound": "S=C1Cc2c([nH]c3ccccc23)-c2ccccc2N1", "TGI": 99.3},
      {"compound": "CC1=CC(=O)NP(=O)(Oc2ccc(C)cc2)N1", "note": "(stereo not given)", "TGI": "> 100"}
    ]}
  ]
}
